Assay results taken from PubChem BioAssay AID1347055 (National Center for Advancing Translational Sciences (NCATS), 2019).
About 120 (0.22%) of roughly 54,000 compounds were called active. Inconclusive means that the source gave no clear call. Such entries were picked first, then a sample of the others. Calls follow the shape of the dose curve; as a rule, active = well fitted inhibition curve with a large enough effect; inconclusive = small, poorly fitted or top-dose-only effect, or effect the other way; inactive = flat fitted curve, though single readings scatter. Potencies of inconclusive entries are left out as doubtful fits.

Each compound was assayed against Fumarate hydratase, mitochondrial (Homo sapiens) (UniProt P07954) (assay: Identification of activators of human fumarate hydratase by quantitative high-throughput screening). Settings: FH coupled MDH/diaphorase resazurin fluorescence, 15 min; activity change, negative = inhibition: at 79.9 µM (top of the series).
Chain of UniProt P07954 (P07954 whole entry, looked up): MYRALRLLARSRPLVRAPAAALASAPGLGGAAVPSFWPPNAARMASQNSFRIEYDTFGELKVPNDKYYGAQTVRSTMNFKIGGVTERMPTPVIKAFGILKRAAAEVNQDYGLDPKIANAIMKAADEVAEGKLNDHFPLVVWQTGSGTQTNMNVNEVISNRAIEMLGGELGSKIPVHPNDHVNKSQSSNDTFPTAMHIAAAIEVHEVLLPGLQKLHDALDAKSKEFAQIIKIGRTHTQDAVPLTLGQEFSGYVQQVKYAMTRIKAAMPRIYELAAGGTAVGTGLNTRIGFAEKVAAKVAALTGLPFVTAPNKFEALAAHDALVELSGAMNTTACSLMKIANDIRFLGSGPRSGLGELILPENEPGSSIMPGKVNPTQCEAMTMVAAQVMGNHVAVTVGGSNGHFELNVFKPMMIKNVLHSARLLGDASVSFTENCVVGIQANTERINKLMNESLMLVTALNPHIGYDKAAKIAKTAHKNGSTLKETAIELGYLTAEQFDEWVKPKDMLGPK
% is scaled to controls: 0 for no effect and ±100 for the full control effect; potency is read from the fitted curve at half-maximal effect; tags tell the direction and shape of the fitted curve.
Also: the screen sought activators but most active calls are inhibition curves; nearly all actives have a fitted effect of over 45% in size.

| SMILES | Potency | activity change, negative = inhibition |
| --- | --- | --- |
| CCOc1ccc(C(=O)Nc2ccc3c(c2)OCCO3)cc1Br | inactive | – |
| Cc1ccc(-c2csc3ncnc(Nc4ccc(C(=O)O)cc4)c23)cc1 | inconclusive [inhibitor, partial curve] | – |
| O=C(Nc1ccc(Cl)cc1)c1cc(S(=O)(=O)NC2CCCCCC2)ccc1F | – | inconclusive: -38.8% [inhibitor] |
| COc1cccc(CN(C(=O)c2oc3ccccc3c2C)C2CCS(=O)(=O)C2)c1 (stereo not drawn) | inactive | – |
| Cc1cc2n(n1)CCC(=O)N2Cc1ccc(C(=O)Nc2cccc(C(F)(F)F)c2)cc1 | inactive | – |
| O=C(c1cc2ccc3cccnc3c2[nH]1)N1CCN(c2cccc(Cl)c2)CC1 | inactive | – |
| COc1cc(OC)cc(C(=O)NCCc2csc(-c3ccc(C(F)(F)F)cc3)n2)c1 | inconclusive [inhibitor, single point] | – |
| COCCc1nn2c(=O)cc(COC(=O)c3ccc(Br)cc3)nc2s1 | inconclusive [inhibitor, partial curve, poor fit] | – |
| CCc1ccccc1N(CC)C(=O)C1CCN(c2ncnc3c2nc2n3CCCCC2)CC1 | inconclusive [inhibitor, partial curve, poor fit] | – |
| CCCCNC(=O)CN1CCN(c2ncc(NC(=O)c3ccc(Cl)cc3)cc2C(=O)O)CC1 | inactive | – |
| CC(Sc1nc2c([nH]c3ccccc32)c(=O)n1-c1ccccc1)c1ccccc1 (stereo not drawn) | inconclusive [inhibitor, single point] | – |
| COc1ccccc1OCc1nc(-c2cccc(C)c2)no1 | inactive | – |
| COc1ccc(C(=O)NCC(c2ccc3c(c2)OCO3)N2CCOCC2)cc1OC (stereo not drawn) | inconclusive [activator, full curve] | – |
| CCC1CN(C(=O)N2CCC(C(=O)N3CCN(c4cc(C)ccc4C)CC3)CC2)c2ccccc2O1 (stereo not drawn) | inactive | – |
| COc1cc(C)ccc1OCCSc1nc2ccc(NC(C)=O)cc2s1 | inconclusive [inhibitor, partial curve, poor fit] | – |
| COc1ccc(/C=C2\COc3ccc(C)cc3C2=O)cc1O | inactive | – |
| Cc1nc(-c2ccc(F)cc2)sc1CCNC(=O)c1ccc(C(C)(C)C)cc1 | inconclusive [inhibitor, single point] | – |
| CCOc1ccc(C(=O)c2c(N)c(-c3nc(-c4ccc(OCC)cc4)cs3)c3ccccn23)cc1 | inconclusive [activator, single point] | – |
| CCOC(=O)N1CCN(C(=O)Cn2ncc3c4ccccc4n(Cc4ccc(F)cc4)c3c2=O)CC1 | inconclusive [inhibitor, partial curve, poor fit] | – |
| Cc1nn(-c2ccccc2)c2sc(C(=O)Nc3cccc(Br)c3)cc12 | inconclusive [inhibitor, partial curve, poor fit] | – |
| Cc1cccn2c(=O)c(C(=O)NCCc3ccc(S(N)(=O)=O)cc3)c(O)nc12 | inconclusive [activator, partial curve, poor fit] | – |

| SMILES | Potency | activity change, negative = inhibition |
| --- | --- | --- |
| O=C(Nc1ccc(Cl)c(C(F)(F)F)c1)C1CCN(S(=O)(=O)c2cccc3nonc23)CC1 | inactive | – |
| CC(CCc1ccc(O)cc1)NCCc1ccc(O)c(O)c1 (stereo not drawn) | inconclusive [activator, partial curve] | – |
| Cc1ccc2occ(CC(=O)N(Cc3ccc(C(C)C)cc3)C3CCS(=O)(=O)C3)c2c1 (stereo not drawn) | inconclusive [inhibitor, partial curve, poor fit] | – |
| COc1ccc(Cl)cc1NC(=O)CSc1cn(CC(=O)N2CCCCCC2)c2ccccc12 | inconclusive [inhibitor, partial curve] | – |
| COc1ccc(CC2C(=O)Nc3ccc(Br)cc32)cc1OC (stereo not drawn) | inactive | – |
| CCn1c(=O)c2cc(C(=O)NCCCN3CCC(C)CC3)sc2c2ccccc21 | inconclusive [inhibitor, partial curve, poor fit] | – |
| Cc1ccc(Cn2c(C(=O)O)c(CNC3CCCC3)c3ccc(C)cc32)cc1 | inconclusive [inhibitor, partial curve, poor fit] | – |
| Cc1ccc(NS(=O)(=O)c2ccc3[nH]c4c(c3c2)CCCC4)cc1N(C)C | inconclusive [inhibitor, single point] | – |
| O=C1C(Cl)=C(NCCN2CCOCC2)C(=O)c2ncccc21 | inactive | – |
| O=C(Nc1ccc(-c2ccncc2)cc1)N[C@H](CO)c1ccccc1 | inconclusive [activator, full curve] | – |
| CCOC(=O)c1cn(CC(=O)Nc2ccc(OC)cc2OC)nn1 | inconclusive [inhibitor, single point] | – |
| COc1cc(NC(=O)NC(C)c2c(-n3cccc3)sc3c2CCCC3)cc(OC)c1OC (stereo not drawn) | inconclusive [inhibitor, single point] | – |
| Cc1ccc(OCc2ccc(-c3nc(C#N)c(NCc4cccnc4)o3)o2)cc1 | inconclusive [inhibitor, single point] | – |
| Cc1c(C(=O)N2CCC(c3nc4ccccc4s3)CC2)oc2ccc(Cl)cc12 | inconclusive [inhibitor, partial curve, poor fit] | – |
| Oc1c(C(c2ccccc2F)N2CCN(Cc3ccccc3)CC2)sc2nc(-c3ccco3)nn12 (stereo not drawn) | inconclusive [inhibitor, single point] | – |
| O=c1cc(O)cc(/C=C/c2ccc(O)c(O)c2)o1 | inconclusive [inhibitor, partial curve] | – |
| COC(=O)c1scc(-c2ccc(C)cc2)c1S(=O)(=O)N1CCN(c2ccc(C(C)=O)cc2)CC1 | inconclusive [inhibitor, partial curve, poor fit] | – |
| CCOC(=O)c1ccc(N2C(=O)c3n[nH]c(-c4ccco4)c3C2c2ccc(O)c(OC)c2)cc1 (stereo not drawn) | inconclusive [inhibitor, partial curve, poor fit] | – |
| COc1cc(OC)c(NS(=O)(=O)c2cc(-c3cnc(C)o3)ccc2OC)cc1Cl | inconclusive [inhibitor, partial curve] | – |
| Cc1ccc2oc(-c3cc(NC(=O)c4ccco4)ccc3Cl)nc2c1 | inconclusive [inhibitor, single point] | – |
| Cc1ccc(N)cc1O | active: 20 µM | – |

| SMILES | Potency | activity change, negative = inhibition |
| --- | --- | --- |
| Cc1ccc2oc(=O)n(CCCOc3ccc(Cl)cc3)c2c1 | inconclusive [inhibitor, partial curve, poor fit] | – |
| Cc1ccc(CCNC(=O)c2ccc(CSCc3ccccc3Cl)o2)cc1 | inconclusive [inhibitor, partial curve, poor fit] | – |
| O=C1c2[nH]nc(-c3ccc(Br)cc3)c2C(c2cccc(O)c2)N1c1ccc(Cl)cc1 (stereo not drawn) | inconclusive [inhibitor, partial curve] | – |
| O=C(CC1N=C2c3ccccc3N=C(SCc3ccccc3F)N2C1=O)NCc1ccc2c(c1)OCO2 (stereo not drawn) | inconclusive [inhibitor, partial curve, poor fit] | – |
| CCc1cccc(C)c1NC(=O)CSc1nc2ccccc2nc1N1CCOCC1 | inconclusive [inhibitor, partial curve] | – |
| CCOC(=O)c1cc(-c2ccc(C)cc2)n(CCC(=O)Nc2ccc(C(C)C)cc2)c1C | inconclusive [inhibitor, partial curve] | – |
| CCOc1ccc(CCNC(=O)c2cn(CC)c3ccc(S(=O)(=O)N4CCCCCC4)cc3c2=O)cc1OCC | inconclusive [inhibitor, partial curve] | – |
| COc1ccc(OC)c(NS(=O)(=O)c2ccc3[nH]c4c(c3c2)CCCCC4)c1 | inconclusive [inhibitor, single point] | – |
| CCn1c2ccccc2c2cc(NC(=O)COc3cccc(C)c3)ccc21 | inconclusive [inhibitor, single point] | – |
| CCOC(=O)c1c(C)[nH]c(C)c1S(=O)(=O)N1CCC(C(=O)Nc2ccc(C)cn2)CC1 | inconclusive [inhibitor, partial curve, poor fit] | – |
| CC(C)N(CCC(=O)c1ccc2ccccc2c1)Cc1ccccc1 | inconclusive [inhibitor, single point] | – |
| COc1ccc(-c2oc3ncn4nc(-c5ccccc5C)nc4c3c2-c2ccc(OC)cc2)cc1 | inconclusive [inhibitor, partial curve] | – |
| CCC(C)(C)c1ccc(CC(C)CN2C[C@@H](C)O[C@@H](C)C2)cc1 (stereo partly drawn) | inactive | – |
| CCCCN(c1ccccc1)S(=O)(=O)c1ccc2c(c1)CC(C)N2C(=O)C1CC1 (stereo not drawn) | inactive | – |
| N#Cc1ccc(Nc2nc(-c3ccc(O)cc3O)cs2)cc1C(F)(F)F | inconclusive [inhibitor, partial curve] | – |
| O=C(NCCc1nc2ccccc2n1CCCOc1ccc(Cl)cc1)C1CCCCC1 | inconclusive [inhibitor, partial curve] | – |
| CC(=O)Nc1nonc1-c1nnc(SCC(=O)Nc2ccc(C)c(Cl)c2)n1-c1ccccc1 | inconclusive [inhibitor, single point] | – |
| COc1ccc(C(=O)Nc2ccc(-c3nc4ccccc4s3)cc2C)cc1Cl | inactive | – |
| Cc1ccc(CNC(=O)Cn2cc(C(=O)c3ccc(F)cc3)c(=O)c3ccc(C)nc32)cc1 | inactive | – |
| CCCCOc1ccc(CNC(=O)CCCN2C(=O)CSc3c2c(C)nn3-c2ccccc2)cc1 | inconclusive [inhibitor, single point] | – |
| NS(=O)(=O)c1ccc(NC(=O)c2ccc3c(c2)CCN3S(=O)(=O)c2ccccc2)cc1 | inactive | – |
